19 molecules from the supplement of paper PMC10369915 can be followed below.

Some of the results follow. No stated cut-off is given here; in the data, active = 3.2 or more and inactive = the rest. Most of these values are background signal.
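Further: displayed peptides selected on beads carrying the immobilized SH2 domain, with library peptides lacking any tyrosine serving as negative controls.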

One assay concerns the target SHP2 C-SH2 domain E139D. Put plainly: enrichment score (SH2-bound / input frequency) (ratio); bacterial display of known human phosphotyrosine sites (pTyr-Var adds point mutants) read by sequencing; higher = stronger binding; tyrosines were phosphorylated by kinases first. Conditions: peptide library: pTyr-Var.
Consider RTEAQYRFIYM [PTPN11_Y511_Q506R], for which the enrichment score is inactive: 0.592.

On to QTEAEYRFIFM [PTPN11_Y511_Q510E_YF], for which the enrichment score is inactive: 0.498.

Regarding DLDLTYIFPNI [PTEN_Y27_YF], the enrichment score is inactive: 1.2.

Consider ECKLRYSRKEG [PTPN11_Y263_L262R], for which the enrichment score is inactive: 0.278.

Turning to NHFKRYNLCAE [PTEN_Y68_I67R_YF], the enrichment score was inactive: 0.676.

In the case of ECKFLYSRKEG [PTPN11_Y263_L261F], the enrichment score was inactive: 0.546.

For VEEDTYTMPST [PTK2_Y407_D402V], the enrichment score is inactive: 0.614.

For GKANRYFSPNF [PTEN_Y336_D331G], the enrichment score was inactive: 0.866.

Take EPVSDYINASI [PTPN11_Y304_N308S]: the enrichment score was inactive: 0.624.

For the molecule PTEAQYRFIYM [PTPN11_Y511_Q506P], the enrichment score was inactive: 0.459.

As for DKANRYFSPNV [PTEN_Y336_F341V], the enrichment score was inactive: 0.617.

Take DKANRYFSPNF [PTEN_Y336]: the enrichment score is inactive: 0.876.

In the case of NHYKIHNLCAE [PTEN_Y68_Y68H], the enrichment score was inactive: 1.75.

Regarding RLEGVYRNNID [PTEN_Y46], the enrichment score is inactive: 0.707.

For the molecule NHYKICNLCAE [PTEN_Y68_Y68C], the enrichment score is active: 3.43.

For KNKNRYKNVLP [PTPN11_Y279_I282V], the enrichment score was inactive: 0.708.

On to TLNFCYQQVKS [PTK2_Y148_F147C], for which the enrichment score is inactive: 0.941.

Consider LDPMVYMNDKS [PTK2B_Y834], for which the enrichment score is inactive: 1.05.

DEEDTYTMPST [PTK2_Y407]: the enrichment score was inactive: 0.631.

Another assay deals with SHP2 C-SH2 domain wild-type. The description is as above. Conditions: peptide library: pTyr-Var.
RTEAQYRFIYM [PTPN11_Y511_Q506R]: the enrichment score is inactive: 0.989.

As for QTEAEYRFIFM [PTPN11_Y511_Q510E_YF], the enrichment score was inactive: 0.498.

On to DLDLTYIFPNI [PTEN_Y27_YF], for which the enrichment score is inactive: 1.12.

For ECKLRYSRKEG [PTPN11_Y263_L262R], the enrichment score is inactive: 0.266.

With NHFKRYNLCAE [PTEN_Y68_I67R_YF], the enrichment score was inactive: 0.605.

As for ECKFLYSRKEG [PTPN11_Y263_L261F], the enrichment score is inactive: 0.616.

Turning to VEEDTYTMPST [PTK2_Y407_D402V], the enrichment score is inactive: 0.466.

On to GKANRYFSPNF [PTEN_Y336_D331G], for which the enrichment score was inactive: 0.777.

Turning to EPVSDYINASI [PTPN11_Y304_N308S], the enrichment score is inactive: 0.818.

For the molecule PTEAQYRFIYM [PTPN11_Y511_Q506P], the enrichment score is inactive: 0.584.

For the molecule DKANRYFSPNV [PTEN_Y336_F341V], the enrichment score is inactive: 0.564.

On to DKANRYFSPNF [PTEN_Y336], for which the enrichment score was inactive: 0.744.

Consider NHYKIHNLCAE [PTEN_Y68_Y68H], for which the enrichment score was inactive: 1.72.

Turning to RLEGVYRNNID [PTEN_Y46], the enrichment score is inactive: 1.25.

With NHYKICNLCAE [PTEN_Y68_Y68C], the enrichment score is active: 3.23.

As for KNKNRYKNVLP [PTPN11_Y279_I282V], the enrichment score was inactive: 0.446.

As to TLNFCYQQVKS [PTK2_Y148_F147C], the enrichment score was inactive: 1.24.

For the molecule LDPMVYMNDKS [PTK2B_Y834], the enrichment score is inactive: 0.619.

Consider DEEDTYTMPST [PTK2_Y407], for which the enrichment score is inactive: 0.553.

The next assay has as its target SHP2 N-SH2 domain L43F. The description is as above. Conditions: peptide library: pTyr-Var.
As for RTEAQYRFIYM [PTPN11_Y511_Q506R], the enrichment score is inactive: 0.682.

As to QTEAEYRFIFM [PTPN11_Y511_Q510E_YF], the enrichment score is inactive: 0.561.

Consider DLDLTYIFPNI [PTEN_Y27_YF], for which the enrichment score was inactive: 0.869.

As to ECKLRYSRKEG [PTPN11_Y263_L262R], the enrichment score is inactive: 0.3.

As for NHFKRYNLCAE [PTEN_Y68_I67R_YF], the enrichment score is inactive: 0.484.

ECKFLYSRKEG [PTPN11_Y263_L261F]: the enrichment score is inactive: 0.953.

For VEEDTYTMPST [PTK2_Y407_D402V], the enrichment score was inactive: 0.391.

Consider GKANRYFSPNF [PTEN_Y336_D331G], for which the enrichment score was inactive: 1.03.

Take EPVSDYINASI [PTPN11_Y304_N308S]: the enrichment score was inactive: 0.639.

With PTEAQYRFIYM [PTPN11_Y511_Q506P], the enrichment score is inactive: 0.569.

For DKANRYFSPNV [PTEN_Y336_F341V], the enrichment score is inactive: 0.694.

DKANRYFSPNF [PTEN_Y336]: the enrichment score is inactive: 1.13.

Consider NHYKIHNLCAE [PTEN_Y68_Y68H], for which the enrichment score was inactive: 1.64.

RLEGVYRNNID [PTEN_Y46]: the enrichment score was inactive: 0.99.

Regarding NHYKICNLCAE [PTEN_Y68_Y68C], the enrichment score is active: 3.72.

For the molecule KNKNRYKNVLP [PTPN11_Y279_I282V], the enrichment score is inactive: 0.502.

Consider TLNFCYQQVKS [PTK2_Y148_F147C], for which the enrichment score is inactive: 0.966.

For LDPMVYMNDKS [PTK2B_Y834], the enrichment score is inactive: 0.886.

For DEEDTYTMPST [PTK2_Y407], the enrichment score was inactive: 0.547.

In the next assay the target is SHP2 N-SH2 domain T42A. Described as above. Conditions: peptide library: pTyr-Var.
Consider RTEAQYRFIYM [PTPN11_Y511_Q506R], for which the enrichment score was inactive: 0.51.

On to QTEAEYRFIFM [PTPN11_Y511_Q510E_YF], for which the enrichment score was inactive: 0.516.

For the molecule DLDLTYIFPNI [PTEN_Y27_YF], the enrichment score was inactive: 0.859.

Regarding ECKLRYSRKEG [PTPN11_Y263_L262R], the enrichment score was inactive: 0.244.

For NHFKRYNLCAE [PTEN_Y68_I67R_YF], the enrichment score is inactive: 0.55.

Regarding ECKFLYSRKEG [PTPN11_Y263_L261F], the enrichment score was inactive: 0.596.

For VEEDTYTMPST [PTK2_Y407_D402V], the enrichment score was inactive: 0.48.

For the molecule GKANRYFSPNF [PTEN_Y336_D331G], the enrichment score is inactive: 0.877.

Regarding EPVSDYINASI [PTPN11_Y304_N308S], the enrichment score is inactive: 0.715.

On to PTEAQYRFIYM [PTPN11_Y511_Q506P], for which the enrichment score is inactive: 0.408.

On to DKANRYFSPNV [PTEN_Y336_F341V], for which the enrichment score is inactive: 0.606.

As for DKANRYFSPNF [PTEN_Y336], the enrichment score was inactive: 1.14.

Turning to NHYKIHNLCAE [PTEN_Y68_Y68H], the enrichment score was inactive: 1.28.

As to RLEGVYRNNID [PTEN_Y46], the enrichment score is inactive: 0.78.

Consider NHYKICNLCAE [PTEN_Y68_Y68C], for which the enrichment score was active: 3.41.

Regarding KNKNRYKNVLP [PTPN11_Y279_I282V], the enrichment score is inactive: 0.414.

As to TLNFCYQQVKS [PTK2_Y148_F147C], the enrichment score is inactive: 0.892.

Regarding LDPMVYMNDKS [PTK2B_Y834], the enrichment score was inactive: 1.56.

For the molecule DEEDTYTMPST [PTK2_Y407], the enrichment score is inactive: 0.429.

In the next assay the target is SHP2 N-SH2 domain T52S. The assay is described as above. Conditions: peptide library: pTyr-Var.
Consider RTEAQYRFIYM [PTPN11_Y511_Q506R], for which the enrichment score was inactive: 0.628.

As to QTEAEYRFIFM [PTPN11_Y511_Q510E_YF], the enrichment score was inactive: 0.45.

For DLDLTYIFPNI [PTEN_Y27_YF], the enrichment score is inactive: 1.04.

On to ECKLRYSRKEG [PTPN11_Y263_L262R], for which the enrichment score was inactive: 0.289.

For NHFKRYNLCAE [PTEN_Y68_I67R_YF], the enrichment score was inactive: 0.579.

For the molecule ECKFLYSRKEG [PTPN11_Y263_L261F], the enrichment score is inactive: 0.585.

As for VEEDTYTMPST [PTK2_Y407_D402V], the enrichment score is inactive: 0.475.

In the case of GKANRYFSPNF [PTEN_Y336_D331G], the enrichment score is inactive: 1.02.

For EPVSDYINASI [PTPN11_Y304_N308S], the enrichment score is inactive: 1.57.

As for PTEAQYRFIYM [PTPN11_Y511_Q506P], the enrichment score is inactive: 0.515.

As for DKANRYFSPNV [PTEN_Y336_F341V], the enrichment score was inactive: 0.541.

As for DKANRYFSPNF [PTEN_Y336], the enrichment score was inactive: 1.25.

Regarding NHYKIHNLCAE [PTEN_Y68_Y68H], the enrichment score is inactive: 1.51.

Turning to RLEGVYRNNID [PTEN_Y46], the enrichment score was inactive: 0.832.

As for NHYKICNLCAE [PTEN_Y68_Y68C], the enrichment score was active: 3.67.

Consider KNKNRYKNVLP [PTPN11_Y279_I282V], for which the enrichment score was inactive: 0.56.

Turning to TLNFCYQQVKS [PTK2_Y148_F147C], the enrichment score is inactive: 0.83.

As for LDPMVYMNDKS [PTK2B_Y834], the enrichment score is inactive: 0.871.

DEEDTYTMPST [PTK2_Y407]: the enrichment score was inactive: 0.499.

A further assay deals with SHP2 N-SH2 domain wild-type. The description is as above. Conditions: peptide library: pTyr-Var.
Consider RTEAQYRFIYM [PTPN11_Y511_Q506R], for which the enrichment score is inactive: 1.33.

As for QTEAEYRFIFM [PTPN11_Y511_Q510E_YF], the enrichment score was inactive: 0.854.

As for DLDLTYIFPNI [PTEN_Y27_YF], the enrichment score is inactive: 1.21.

ECKLRYSRKEG [PTPN11_Y263_L262R]: the enrichment score is inactive: 0.373.

Turning to NHFKRYNLCAE [PTEN_Y68_I67R_YF], the enrichment score was inactive: 0.72.

Consider ECKFLYSRKEG [PTPN11_Y263_L261F], for which the enrichment score was inactive: 0.525.

Take VEEDTYTMPST [PTK2_Y407_D402V]: the enrichment score is inactive: 0.456.

On to GKANRYFSPNF [PTEN_Y336_D331G], for which the enrichment score is inactive: 0.738.

Turning to EPVSDYINASI [PTPN11_Y304_N308S], the enrichment score was inactive: 0.852.

For PTEAQYRFIYM [PTPN11_Y511_Q506P], the enrichment score was inactive: 0.973.

For the molecule DKANRYFSPNV [PTEN_Y336_F341V], the enrichment score was inactive: 0.764.

DKANRYFSPNF [PTEN_Y336]: the enrichment score is inactive: 0.838.

With NHYKIHNLCAE [PTEN_Y68_Y68H], the enrichment score is inactive: 1.73.

Take RLEGVYRNNID [PTEN_Y46]: the enrichment score was inactive: 0.962.

As to NHYKICNLCAE [PTEN_Y68_Y68C], the enrichment score was inactive: 3.09.

KNKNRYKNVLP [PTPN11_Y279_I282V]: the enrichment score is inactive: 0.509.

On to TLNFCYQQVKS [PTK2_Y148_F147C], for which the enrichment score was inactive: 1.16.

On to LDPMVYMNDKS [PTK2B_Y834], for which the enrichment score is inactive: 0.916.

For DEEDTYTMPST [PTK2_Y407], the enrichment score is inactive: 0.562.
